Data: the supplement of paper PMC11417369
Some of the results follow.

test system: PfSIP2 AP2 domain 1 (GST-tagged); test: gcPBM binding intensity (ln(normalized median fluorescence intensity)); higher = stronger DNA binding
Method in brief: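 An Agilent 4 × 180k array of primer-extended double-stranded 36-bp intergenic genomic probes, with negative controls, was incubated for 1 h with GST-tagged P. falciparum DNA-binding domains expressed in E. coli. Alexa488 anti-GST antibody detected bound protein, scanned at 488 nm. Binding intensity is the highest Masliner-normalised natural-log median intensity across replicate spots of either probe orientation.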

Sequence | gcPBM binding intensity (ln)
TGTTCAAATTTATTCGATCTTTATATTTAATAAAAC [CACACA_negctrl_site781] | 6.83
ATTCTACACCCACATACACACATATATATATATATA [CACACA_site3426] | 9.66
AGATACTTTCCTCAAACACACAAAACTATACAACAA [CACACA_site1474] | 7.02
ATATTCTTCTAAAGGCGTACATCTACATTTATGAAA [XGTACX_site2145] | 7.39
ATTCAGTTCTATAATACACACATATATTGACATTAT [CACACA_site7309] | 7.17
GTTAGCTCGTTCGGAGCACACACATATATATATATA [CACACA_site8595] | 9.2
AAGTATGTCGACTGTTGTACTTTTATCATTTATTAT [XGTACX_site1129] | 7.08
ATATACTATGATAATACATGCGATAATACATTTTTA [TGCATGCA_site387] | 7.12
GTATGGCGTATCATATGTACTAAAAAAAAATAAAAA [XGTACX_site5101] | 7.34
AATAAAAAAATGTCACGTACTTATTTTATTAAACCT [XGTACX_site3031] | 6.91
TATTTATCATCATATTGTACATTATATATATAAAAT [XGTACX_site6675] | 6.87
TTATATGCTCAATGTTGTACATGTAGATATATATAT [XGTACX_site8211] | 8.41
ATATATATATATAGTGCACACATATAAAATATATAT [CACACA_site8884] | 10.1
ATCTGTCGACAGGACAGTACACAGTAGCCAGTAACT [XGTACX_site2001] | 6.88
ATAAAATATAGATGCACACACATATAGATTTCATAC [CACACA_site7636] | 7.32
TTTTTTAATTGTGATACGTATATTATTTAATGATAA [GTGCAC_negctrl_site704] | 7.05
TGTATATTTTTTATTACACACTTTTTACTTTTTAGA [CACACA_site3069] | 6.76
AGTATATACACGTGCGTGCACAGATATTCTTTTTTT [GTGCAC_site9398] | 8.32
ATCAAACCATAAAAGAGTACAAAAGGATGATATTTT [XGTACX_site8883] | 6.85

Sequence | gcPBM binding intensity (ln)
TATTTTAAAGAGAAAACATGCATTATATAGAACATT [TGCATGCA_site328] | 7.03
ATGGAAATATATACATGTACATAAATATATATATAT [XGTACX_site8391] | 9.38
AGTGGACTTTTTTTTTTTTTTTTTTTTTTTTTATTA [CACACA_negctrl_site547] | 6.8
ATGTTTTGCATATATTATATATTTATTTATTTTTTT [CACACA_negctrl_site729] | 7.07
AGTAGTCTGGAGAAGAGTACATAGTATCTGGTAACC [XGTACX_site2043] | 6.98
TATTTATTGTGATACTTATATTATTTTATGATTAAA [CACACA_negctrl_site901] | 6.83
AGAGAGATGACAAAAAGATGAATAACGTTAAGGGAT [XGTACX_negctrl_site120] | 7.03
TTGTTTTTCTTTGAATGTACTTAATGATTTCCAATT [XGTACX_site2499] | 7.07
TCCATATATTTTAAAAGTACACATAAAAATTATTTA [XGTACX_site8127] | 7.14
AATGGAAAAATAGGCACACACACATATATACATATA [CACACA_site1298] | 6.99
TAAAATAAAACAAACACACACACACGGACACAAAAA [CACACA_site7754] | 7.03
ATATAAATAAAATATACACACATACTGTTCATTTAA [CACACA_site7880] | 7.01
TTTTTTTTTTATTTTGCACACTTCTAATTTAGTTCT [CACACA_site5828] | 7.37
AAAAAAAAAAAAGATTGTACAGAATACTTTTAAAAT [XGTACX_site3576] | 6.86
AAGTTAATGAAAAAATGTACCCAGAGTATTTTAAAA [XGTACX_site2997] | 6.82
TGGGAAAATAATATTTATTTTATATATAAATATATA [CACACA_negctrl_site121] | 6.81
AAAATACTAGATAGGGGAAAAAAAAAAAAAAAAAAA [CACACA_negctrl_site1732] | 6.96
TATTGTAATATTAGCACACATTACCTCACTACAAAT [CACACA_site5419] | 7.14
AACATGAAAATATATGCATTTGTATATATATATATA [TGCATGCA_negctrl_site16] | 9.54

Sequence | gcPBM binding intensity (ln)
AATAAAACCCCGAAATCACACATTAAATGAAAAATA [CACACA_site4732] | 6.84
ATAAATGATAAAATTGCATGTGAATGTGAAAATATT [TGCATGCA_site251] | 6.93
AAAGCACCCATGCACACACACAAAGGAAAAGAAAAA [CACACA_site6249] | 9.4
ATAAAAAATAAATATATACATACATACATACATATA [XGTACX_negctrl_site507] | 6.68
ATAAAACAAAAATATAAACACACATACATTGGTTTT [CACACA_site8809] | 6.85
TTTTCAAAAATATACACACACATAAATATAGGTATA [CACACA_site6506] | 6.89
TTGATTTACTATAGATGTACGTAAAATATAAATAAA [XGTACX_site8256] | 7.1
AATTTAAAAGAAAAAGAAAAATAATAAACAGAAGCA [XGTACX_negctrl_site503] | 7.01
TTTTCGGATAATAATTGTACGAAACATTTAAAAAAA [XGTACX_site8898] | 6.75
TTGTAAGAAAAACACACACACACATATATATATATA [CACACA_site795] | 9.35
TATATAATATATATATGTACACATATACATTTTTAT [XGTACX_site2832] | 7.16
TAAATAGTTATAAAAGTGCAAAAAAAAAAAAAAAAA [GTGCAC_site9550] | 8.3
ACTCAAAATTATAATTGTACAAATGCTTTGTTTAAT [XGTACX_site3437] | 7.12
ATCATATATGTTATTACACACGTTATGTTATTATAA [CACACA_site2712] | 7.13
TTAATTTCAAGTAGAAGTACTTTTATGATTGTGAGG [XGTACX_site1247] | 7.07
GTGCATAGATGATATACACACAATATAATAGTATGT [CACACA_site5373] | 8.66
TATAATTTAGCTTGTGCATGCAGGTGCTACATTTGT [TGCATGCA_site217] | 9.22
GTTTCAAAATTAAACACACACAAAAAAAAAAAAAAA [CACACA_site2680] | 7.05
